# Results: PubChem BioAssay AID588549 (Broad Institute, 2011)
# Screen size: about 360,000 compounds; about 780 (0.22%) were called active. Inconclusive results, whose numbers are uncertain, are shown with a selection of clear calls. No stated cut-off is given here; in the data, active means inhibition above about 8.5% (passing the limit was not always enough); inconclusive means no clear call, values can overlap the other calls.
# System: Mycobacterium tuberculosis FadD28 fatty-acid-AMP ligase
# Test: inhibitors of FadD28 bisubstrate probe binding, primary screen, biochemical, fluorescence polarization, single point (AID 588549)
# Conditions: at 12.5 µM, hits give high values
row,SMILES,inhibition
1,CCC(C)C(CO)NC(=O)/C=C/[C@H]1O[C@@H](n2cnc3c(NC(=O)c4ccccc4)ncnc32)[C@H](O)[C@@H]1O (some centres undefined),inactive: -0.392%
2,CC(C(=O)Nc1ccc(O)cc1C(=O)O)N1C(=O)/C(=C\c2cccs2)SC1=S (centres undefined),inconclusive: 7.44%
3,ClCc1cc2ccccc2nc1Cl,inconclusive: 2.86%
4,CC(NC(=O)c1ccc2nc[nH]c2c1)c1ccccc1 (centres undefined),inconclusive: 9.21%
5,C=C(C)c1cccc(C(C)(C)NC(=O)N2CCCCC2CC)c1 (centres undefined),inactive: -2.05%
6,COc1ccc(/C=C2/NC(=O)N(CC(=O)Nc3cccc(C)c3)C2=O)cc1O,active: 18.1%
7,CCOC(=O)N1CCN(C(=O)COC(=O)CNC(=O)c2ccc(OCC)c(OCC)c2)CC1,inactive: -3.12%
8,CCN(CC)c1ccc(C=Nc2ccc(C)cc2)c(O)c1,inactive: -4.25%
9,Cc1ccc(S(=O)(=O)N2CCOCC2)cc1C(=O)OCC(=O)N(Cc1ccccc1)C(C)C,inactive: -9.28%
10,N#CC1=C(N)n2c(s/c(=C\c3ccco3)c2=O)=C(C#N)C1c1ccco1 (centres undefined),inconclusive: 6.75%
11,CCN1C(=O)C(=C/C=C/c2ccco2)C(=O)N(CC)C1=S,inconclusive: 9.25%
12,COC(=O)c1cc(S(=O)(=O)Nc2ccsc2C(=O)OC)oc1C,inconclusive: 4.9%
13,C=CCn1c(-c2cccn(Cc3ccc(Cl)cc3)c2=O)n[nH]c1=S,inconclusive: 9.7%
14,O=C(O)c1cc(N/N=C/c2c[nH]c3ccccc23)ccc1Cl,inconclusive: 7.2%
15,Nc1nc2nccc(-c3ccco3)n2n1,inactive: -4.13%
16,N#C/C(=C\C1=C(N2CCOCC2)C(=C/c2cccc([N+](=O)[O-])c2)/CC1)C(=O)Nc1ccccc1F,inconclusive: 7.94%
17,CCc1cccc2c(C(=O)CN3C(=O)NC4(CCc5ccccc54)C3=O)c[nH]c12 (centres undefined),active: 33.1%
18,Cc1cc(C)c2sc(N(CCCN(C)C)C(=O)c3ccc(S(=O)(=O)N4CCCc5ccccc54)cc3)nc2c1,inconclusive: 7.35%
19,COC(=O)[C@]1(Cc2ccccc2)N[C@H](CN(C)S(=O)(=O)c2ccc(-c3ccccc3)cc2)[C@@H]2C(=O)N(C)C(=O)[C@@H]21,active: 11.1%
20,COc1ccc(C(=O)COC(=O)CNS(=O)(=O)c2ccc(C)cc2)cc1,inconclusive: 4.75%
21,COc1ccccc1-c1cnc(C(O)c2cc(C)c(OC)c(C)c2)[nH]1 (centres undefined),inconclusive: 51%

row,SMILES,inhibition
1,O=C(O)c1ccc(Nc2nc3ccccc3nc2NS(=O)(=O)c2ccc(F)cc2)cc1,inconclusive: 6.44%
2,C=CCSc1nc(=O)n2cccc(C)c2n1,inconclusive: 4.54%
3,COc1ccc(CCNC(=O)CSc2nc3[nH]ncc3c(=O)n2-c2ccc(Cl)cc2Cl)cc1OC,inconclusive: 11.7%
4,Cc1cc(-c2nc3ccccc3[nH]2)ccc1N,inactive: -2.32%
5,CCOC(=O)N1CCN(C(=O)c2cc(COc3c(F)cccc3F)on2)CC1,inactive: 0.516%
6,CCn1c(O)c(/C=C/C=C/C=Nc2ccccc2)sc1=S,inactive: -3.43%
7,COc1cccc(/C=N/Nc2ccc(S(=O)(=O)Nc3ccccc3C(=O)O)cc2[N+](=O)[O-])c1O,active: 35.4%
8,CCOC1=C(C#N)CC2(CC1)c1ccccc1-c1ccccc12,inconclusive: 23.5%
9,O=C(O)c1ccc2c(c1)C1C(Cl)C(Sc3ccccc3[N+](=O)[O-])CC1C(c1cccc([N+](=O)[O-])c1)N2 (centres undefined),active: 43.2%
10,Cc1ccc(S(=O)(=O)N2CCN(C(=O)COC(=O)Cc3cccc(C(F)(F)F)c3)CC2)c(C)c1,inconclusive: 19.1%
11,CCCCn1c(NS(=O)(=O)c2ccc(C)cc2)c(S(=O)(=O)c2ccccc2)c2nc3ccccc3nc21,inactive: 3.33%
12,COCCCNC(=O)COc1cc2c(c3oc(=O)c(C)c(C)c13)CCC(C)(C)O2,inactive: -1.9%
13,Cc1cc(C)n2cc(CSc3nnnn3-c3ccccc3C)nc2n1,inactive: -2.49%
14,O=C(NN1C(=O)/C(=C/c2cccc(O)c2)SC1=S)c1ccccc1O,inconclusive: 9.63%
15,O=C1C(Cl)=C(NCCN2CCOCC2)C(=O)c2ccccc21,inconclusive: 5.59%
16,CN(C)C1(c2nnnn2-c2ccc(Cl)cc2)CCCCC1,inconclusive: 7.38%
17,O=C(O)C1Nc2c(Cl)cc(Cl)cc2C2C=CCC12 (centres undefined),active: 13.7%
18,COc1ccc(C(=O)Nc2ccncc2)cc1OC,inconclusive: 59.9%
19,Nc1cc(OC(=O)c2ccc(F)cc2)nn1S(=O)(=O)c1ccccc1,inconclusive: 23.6%
20,Cc1c2cc(O)c(=O)cc-2oc2cc(O)c(O)cc12,active: 11.6%
21,COc1ccc2c(c1)c(=O)oc1c(C)c(OCc3cc(C(=O)O)oc3C)ccc12,inactive: -9.72%

row,SMILES,inhibition
1,COC(=O)c1sccc1-c1ccc(C(=O)Nc2cccnc2)o1,inactive: -2.97%
2,O=C(O)c1ccc(N/N=C/c2cn(Cc3ccccc3F)c3ccccc23)cc1,active: 12.6%
3,COc1ccc(OC)c(NC(=O)c2nnn(CCc3ccccc3)c2N)c1,inconclusive: 8.09%
4,NC(Cc1ccc(Cl)cc1)c1csc(NC(=O)Nc2ccccc2)n1 (centres undefined),inconclusive: 0.694%
5,O=C(CN1C(=O)NC2(CCCc3ccccc32)C1=O)c1ccc(Br)cc1 (centres undefined),active: 17.2%
6,O=c1[nH]c2ccccc2nc1-c1ccccc1,inactive: -3.47%
7,CC(=O)NNC(=O)c1sc(=S)n2c1[nH]c(=O)c1sccc12,inconclusive: 8.83%
8,CCN1C(=O)C(O)(CC(=O)/C=C/C=C/c2ccccc2)c2ccccc21 (centres undefined),inactive: 0.131%
9,FC(F)(F)c1cccc(NC(=S)N2CCN(c3ccccn3)CC2)c1,inconclusive: 7.04%
10,CC1=NN(C(C#N)c2ccccc2O)C(C)(C)C1 (centres undefined),inactive: -1.36%
11,O=[N+]([O-])c1nn(-c2ccc3c(c2)OCCO3)n(O)c1=NCc1ccccc1Cl,inactive: 0.371%
12,Brc1cc2c(cc1/C=N/Nc1nc(N3CCCC3)nc(N3CCOCC3)n1)OCO2,inactive: -0.259%
13,CC(C)(C)c1ccc(-c2csc(NNC3=NCCCCC3)n2)cc1,inactive: -1.92%
14,CCCCCCCCNC(C)C(O)c1ccc(SC(C)C)cc1 (centres undefined),active: 15.4%
15,COc1ccc(S(=O)(=O)Nc2nc3ccccc3nc2Nc2cccc(C(=O)O)c2)cc1,inconclusive: 5.23%
16,CCc1nc(C)cn1S(=O)(=O)c1cc(C)c(OC)c(C)c1C,inconclusive: 8.7%
17,COc1cccc(CN(C)C(=O)CC2C(=O)NCCN2C2Cc3ccccc3C2)c1 (centres undefined),inconclusive: 4.4%
18,c1ccc(-c2cnn3c(-c4ccccc4)c(-c4ccccc4)nc3n2)cc1,inconclusive: 4.42%
19,COc1cccc(-c2cc(C(=O)Nc3ccncc3)c3ccccc3n2)c1,inconclusive: 3.67%
20,O=C1COc2ccc(C(=O)COC(=O)CNS(=O)(=O)c3cccc(F)c3)cc2N1,inactive: -3.26%
21,COCCCNC(=O)Cn1cc(/C=C2\C(=O)NC(=O)N(c3ccccc3F)C2=O)c2ccccc21,inactive: 2.82%

row,SMILES,inhibition
1,Cc1ccc(OCC(=O)N/N=C\c2c(C)n(C)c3ccccc23)c([N+](=O)[O-])c1,inconclusive: 7.89%
2,Cc1ccc(S(=O)(=O)N2[C@@H](c3cccc(Cl)c3)C(C(=O)O)=CC[C@H]2c2cccc(Cl)c2)cc1,active: 13.5%
3,Cc1cc(N=Nc2ccccc2C(=O)O)c(C)c(C)c1O,inconclusive: 6.96%
4,CN=c1scc(-c2ccccc2F)n1/N=C/c1ccc(O)c(O)c1O,active: 9.11%
5,COC(=O)c1cc(C)nc2c1C(=O)C(=O)C=C2N1CCOCC1,inconclusive: 10.4%
6,CCOc1cc(C2C(C(=O)OC(C)C)=C(C)N=C3SCCC(=O)N32)ccc1OC(C)=O (centres undefined),inconclusive: 7.14%
7,Cc1ccc(NC(=S)NNc2ccc(C(=O)O)cc2[N+](=O)[O-])cc1C,inconclusive: 6.25%
8,O=C(NS(=O)(=O)N1CCOCC1)C1=C(N2CCCC2)COC1=O,inactive: 0.359%
9,CC(=O)c1cccc(S(=O)(=O)N(Cc2cc3cc4c(cc3[nH]c2=O)OCCO4)CC2CCCO2)c1 (centres undefined),inactive: -2.64%
10,COc1cc(NC(=O)C2CCN(S(=O)(=O)c3ccc(Cl)cc3)CC2)ccc1-n1cnnn1,inconclusive: 8.96%
11,C=CCC[C@@H](Cc1ccc(F)cc1)C(=O)OC[C@@H](NC(=O)[C@@H](CC=C)CC(=O)N(CCO)Cc1ccccc1)c1ccccc1,inconclusive: 16.3%
12,COc1ccccc1NC(=O)CSCC(=O)N1c2ccccc2CCc2ccccc21,inconclusive: 5.09%
13,O=C(CCc1nc2ccccc2c(=O)[nH]1)NCc1ccco1,inconclusive: 6.74%
14,CC(=O)c1ccc(C(=O)N2CCCC(Nc3ccccc3)C2)s1 (centres undefined),inconclusive: 3.25%
15,CCOc1c(OC(C)=O)ccc(/C=C2\N=C(SCC)SC2=O)c1[N+](=O)[O-],inconclusive: 9.41%
16,COc1ccc2nc(-c3ccc(F)cc3)sc2c1,inconclusive: 2.42%
17,C[C@@H]1CN([C@H](C)CO)C(=O)c2cc(NC(=O)Nc3ccc(C(F)(F)F)cc3)ccc2O[C@H]1CN(C)S(=O)(=O)c1ccc(Cl)cc1,inconclusive: 4.04%
18,Cc1cc(=O)oc2c3c(cc(OCC(=O)NCc4ccccc4)c12)OC(C)(C)CC3,inactive: -1.19%
19,O=C(CSc1nnc(Cc2ccccc2)o1)c1ccc2c(c1)OCO2,inconclusive: 3.25%
20,O=C(O)CCC(=O)Nc1ccc(C(=O)OCC(=O)c2ccc(Cl)cc2Cl)cc1,inconclusive: 8.12%
21,NC(=S)N=Nc1c(O)cc(O)c2[nH]c(=O)ccc12,active: 29.7%
